Source: PubChem BioAssay AID1347428 (National Center for Advancing Translational Sciences (NCATS), 2020)
The whole screen tested about 91,000 compounds, of which about 290 (0.32%) were called active. The inconclusive results got no clear call from the source; some entries with a clear call stand among them for comparison. Calls follow the shape of the dose curve; as a rule, active = well fitted inhibition curve with a large enough effect; inconclusive = small, poorly fitted or top-dose-only effect; inactive = no such curve, though single readings can be large or run the other way. Where the call is inconclusive, the potency comes from a doubtful curve fit.

What follows are compounds tested against Single-stranded DNA cytosine deaminase (Homo sapiens) (UniProt Q9GZX7) (assay: Primary qHTS assay for inhibitors of Activation Induced Cytidine Deaminase (AID): AID signal). Details: AID deamination FRET fluorescence, UDG-coupled, 4 h; series mostly up to 115 µM.
Sequence of UniProt Q9GZX7 (Q9GZX7 whole entry, looked up): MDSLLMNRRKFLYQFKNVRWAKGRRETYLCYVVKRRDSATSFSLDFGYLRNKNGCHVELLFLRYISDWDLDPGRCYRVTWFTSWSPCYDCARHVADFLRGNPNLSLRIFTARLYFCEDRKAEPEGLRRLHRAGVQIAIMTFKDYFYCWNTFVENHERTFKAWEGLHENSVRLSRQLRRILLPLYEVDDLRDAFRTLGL
Also: nearly all actives have a fitted effect of over 25% in size.
Potency is read from the fitted curve at half-maximal effect; tags tell the direction and shape of the fitted curve.

Q: How did the Potency turn out when `COc1ccc(Cn2c(SCc3ccc(C(=O)NCc4ccccc4F)cc3)nc3cccnc32)cc1` was run?
A: Its Potency is inconclusive: 17.8 µM [inhibitor, full curve, poor fit].

Q: Which Potency does the source give for `CC(=O)N1c2nc(-c3ccco3)nn2C2(CCCCC2)[C@@H]2CCCC[C@@H]21` here?
A: The Potency was inconclusive: 56.2 µM [inhibitor, partial curve, poor fit].

Q: Which Potency does the source give for `O=C(c1ccc2c(c1)N(Cc1ccc(F)cc1)C(=O)c1ccccc1S2(=O)=O)N1CCC(Cc2ccccc2)CC1` here?
A: The Potency was inconclusive: 35.5 µM [inhibitor, partial curve, poor fit].

Q: `CCCCCCCCCCC(C)(C)C(=O)Nc1c(OC)cc(OC)cc1OC` was tested. Which Potency did it give?
A: Its Potency is inconclusive: 56.2 µM [inhibitor, partial curve, poor fit].

Q: `COc1ccc(NC(=O)Nc2nnc(N(C)C3CCCCC3)s2)c(OC)c1` was tested. Which Potency did it give?
A: Its Potency is inconclusive: 35.5 µM [inhibitor, full curve, poor fit].

Q: How did the Potency turn out when `O=C(NCCc1ccccc1)c1c[nH]c2ccc(S(=O)(=O)Nc3ccccc3F)cc2c1=O` was run?
A: The Potency was “inactive”.

Q: `CCC(C)NC(=O)c1sc2nc(C)c(C(=O)Nc3ccc(Cl)cc3)c(-c3ccc(Br)cc3)c2c1N` (stereo not given) was tested. Which Potency did it give?
A: The Potency was “inactive”.

Q: How did the Potency turn out when `COc1ccc(CC(=O)NC(C)c2nnc(SCC(=O)c3ccc(Cl)cc3Cl)n2C)cc1` (stereo not given) was run?
A: The Potency was “inactive”.

Q: For `COc1ccccc1N1CCN(C(=O)c2c3c(nc4ccccc24)C(=O)N(C2CCCCC2)C3)CC1`, which Potency is on record?
A: The Potency was inconclusive: 12.6 µM [inhibitor, partial curve, poor fit].

Q: `Cc1cccc(NC(=O)CSc2nc(C)c(Cc3ccccc3)c(=O)[nH]2)c1` was tested. Which Potency did it give?
A: Its Potency is “inactive”.

Q: `Cc1ccc(-n2nc(C)c(C(=O)N3CCc4ccccc4C3)c2-n2cccc2)cc1` was tested. Which Potency did it give?
A: Its Potency is inconclusive: 56.2 µM [inhibitor, partial curve, poor fit].

Q: How did the Potency turn out when `CCOc1ccccc1NC(=O)CSc1cc(=O)n(CC)c2ccccc12` was run?
A: Its Potency is inconclusive: 63.1 µM [inhibitor, partial curve, poor fit].

Q: Which Potency does the source give for `COc1ccc(CNC(=O)CC2CCN(C(=O)c3ccc4nc(-c5ccc(C)cc5)oc4c3)CC2)cc1` here?
A: The Potency was inconclusive: 56.2 µM [inhibitor, partial curve, poor fit].

Q: How did the Potency turn out when `COc1ccc(-c2onc(C)c2C)cc1S(=O)(=O)N1CCC(C)CC1` was run?
A: Its Potency is inconclusive: 31.6 µM [inhibitor, full curve].

Q: Which Potency does the source give for `COc1ccc(-c2nonc2NC(=O)c2ccc(OCC(C)C)cc2)cc1OC` here?
A: Its Potency is “inactive”.

Q: For `O=C(CN1C(=O)C2(SCC(=O)N2c2cccc(Cl)c2)c2ccccc21)NC1CCCCC1` (stereo not given), which Potency is on record?
A: The Potency was inconclusive: 56.2 µM [inhibitor, partial curve, poor fit].

Q: With `CCCCN(CCCC)S(=O)(=O)c1ccc2oc(C(=O)NCc3ccccc3)c(C)c2c1` as the compound, how does the Potency read?
A: The Potency was inconclusive: 31.6 µM [inhibitor, full curve].

Q: How did the Potency turn out when `CCOC(=O)c1c(C)oc2c(Cl)cc(NS(=O)(=O)c3ccc(Cl)c(C)c3)cc12` was run?
A: Its Potency is inconclusive: 39.8 µM [inhibitor, single point].

Q: How did the Potency turn out when `O=C(CCCCn1c(=O)[nH]c2ccsc2c1=O)N1CCN(c2cccc(Cl)c2)CC1` was run?
A: The Potency was inconclusive: 56.2 µM [inhibitor, partial curve, poor fit].

Q: For `COC(=O)CCC(=O)Oc1cc(C)c(C2(c3cc(C(C)C)c(OC(=O)CCC(=O)OC)cc3C)OC(=O)c3ccccc32)cc1C(C)C`, which Potency is on record?
A: The Potency was inconclusive: 56.2 µM [inhibitor, partial curve, poor fit].

Q: `Cc1ccc(-c2cc(C(F)(F)F)n3nc(C(=O)Nc4ccc(C#N)cc4)cc3n2)cc1` was tested. Which Potency did it give?
A: The Potency was inconclusive: 39.8 µM [inhibitor, partial curve, poor fit].

Q: With `CCOc1ccc(S(=O)(=O)Nc2ccc(-c3ccc(N4CCCC4)nn3)cc2)cc1` as the compound, how does the Potency read?
A: The Potency was inconclusive: 89.1 µM [inhibitor, single point].

Q: Which Potency does the source give for `Cc1cccc2sc(N3CCN(C(=O)c4ccco4)CC3)nc12` here?
A: The Potency was “inactive”.

Q: With `CCCNc1c(NC(=O)Nc2ccc(Cl)cc2)c(=O)oc2ccccc12` as the compound, how does the Potency read?
A: The Potency was “inactive”.

Q: With `CSc1nn(Cc2cccc(F)c2)c(N(C(C)=O)C(C)=O)c1S(=O)(=O)c1ccccc1` as the compound, how does the Potency read?
A: Its Potency is inconclusive: 79.4 µM [inhibitor, single point].

Q: With `CCc1ccc2nc(N3CCN(C(=O)c4ccco4)CC3)sc2c1` as the compound, how does the Potency read?
A: Its Potency is inconclusive: 50.1 µM [inhibitor, partial curve, poor fit].

Q: `COc1ccc(Nc2nnc(-c3ccc(C)c(S(N)(=O)=O)c3)c3ccccc23)cc1` was tested. Which Potency did it give?
A: Its Potency is inconclusive: 50.1 µM [inhibitor, partial curve, poor fit].

Q: How did the Potency turn out when `CCc1ccc(CN2CCc3nc(Nc4ccc5c(c4)OCCO5)ncc3C2)cc1` was run?
A: Its Potency is inconclusive: 25.1 µM [inhibitor, full curve, poor fit].

Q: How did the Potency turn out when `CCOC(=O)c1nc(N(C)c2cccc(C)c2)c2ccccc2n1` was run?
A: The Potency was “inactive”.

Q: With `CC1CCc2cc(F)ccc2N1C(=O)C1(C)CC1(Br)Br` (stereo not given) as the compound, how does the Potency read?
A: The Potency was “inactive”.

Q: For `COc1cccc(CC(=O)Nc2c(C(=O)N3CCN(c4ccccc4F)CC3)oc3ccccc23)c1`, which Potency is on record?
A: The Potency was inconclusive: 31.6 µM [inhibitor, partial curve, poor fit].

Q: Which Potency does the source give for `Cc1cc(C)cc(OCC(=O)N2CCC(c3nc4ccccc4o3)CC2)c1` here?
A: Its Potency is inconclusive: 89.1 µM [inhibitor, single point].

Q: `COc1ccc(C)cc1NC(=O)Cn1cc(S(=O)(=O)N2CCC(C)CC2)c2ccccc2c1=O` was tested. Which Potency did it give?
A: The Potency was inconclusive: 22.4 µM [inhibitor, full curve].

Q: `CCC(=O)N1c2ccccc2CC1C(=O)NCCN1CCN(c2cc(Cl)ccc2C)CC1` (stereo not given) was tested. Which Potency did it give?
A: Its Potency is “inactive”.

Q: For `CCOc1ccc(CCNC(=O)c2ccc(CSCc3ccccc3C)o2)cc1OCC`, which Potency is on record?
A: Its Potency is inconclusive: 15.8 µM [inhibitor, full curve].

Q: How did the Potency turn out when `Clc1ccc(-c2cn3cc(Cc4ccccc4)sc3n2)cc1` was run?
A: Its Potency is “inactive”.

Q: How did the Potency turn out when `COc1cc(C2CC(=O)c3c([nH]c(C(=O)OC4CCCC4)c3C)C2)cc(OC)c1OC` (stereo not given) was run?
A: The Potency was inconclusive: 50.1 µM [inhibitor, partial curve, poor fit].

Q: For `CCOc1ccc(N(C(C)C(=O)Nc2ccccc2Oc2ccccc2)S(C)(=O)=O)cc1` (stereo not given), which Potency is on record?
A: The Potency was inconclusive: 79.4 µM [inhibitor, partial curve, poor fit].

Q: With `N#C/C(=C/c1ccccc1C=O)c1nc2ccccc2s1` as the compound, how does the Potency read?
A: The Potency was “inactive”.

Q: For `Cc1cccc(N2CCN(C(=O)c3cnn(-c4ccccc4)c3C3CCN(C(=O)OC(C)(C)C)CC3)CC2)c1C`, which Potency is on record?
A: Its Potency is inconclusive: 50.1 µM [inhibitor, partial curve, poor fit].

Q: Which Potency does the source give for `CCCCCCn1c(CN2CCN(c3ccccc3)CC2)nc2c1c(=O)n(C)c(=O)n2C` here?
A: Its Potency is inconclusive: 35.5 µM [inhibitor, full curve].

Q: `COc1ccc(S(=O)(=O)c2nnn(-c3cccc(Cl)c3)c2N)cc1` was tested. Which Potency did it give?
A: The Potency was inconclusive: 22.4 µM [inhibitor, full curve, poor fit].

Q: `COc1ccc2[nH]cc(CCNC(=O)Nc3cc(C)cc(C)c3)c2c1` was tested. Which Potency did it give?
A: The Potency was inconclusive: 39.8 µM [inhibitor, single point].

Q: With `CCC(Nc1ccc(-c2nc(-c3cccnc3)no2)cc1[N+](=O)[O-])c1ccccc1` (stereo not given) as the compound, how does the Potency read?
A: The Potency was inconclusive: 28.2 µM [inhibitor, full curve].

Q: `CCOC(=O)c1ccc(N2CCN(CC)CC2)c(NC(=O)COc2ccc(CC)cc2)c1` was tested. Which Potency did it give?
A: The Potency was “inactive”.

Q: With `CN(C)S(=O)(=O)c1ccc(NC(=O)COc2ccc3cc(Br)ccc3c2)cc1` as the compound, how does the Potency read?
A: Its Potency is “inactive”.

Q: `COc1ccc(-c2cc3ccc(O)c(CN4CCN(C)CC4)c3oc2=O)cc1OC` was tested. Which Potency did it give?
A: The Potency was inconclusive: 22.4 µM [inhibitor, full curve, poor fit].

Q: With `Nc1nc(N2CCN(Cc3ccccc3Cl)CC2)c2[nH]cnc2n1` as the compound, how does the Potency read?
A: Its Potency is “inactive”.

Q: Which Potency does the source give for `FC(F)Oc1cccc(-c2ccnc(=S)[nH]2)c1` here?
A: Its Potency is “inactive”.

Q: `CCc1nc2ccc(C(=O)N3CCN(c4cccc(Cl)c4)CC3)cc2nc1CC` was tested. Which Potency did it give?
A: Its Potency is inconclusive: 28.2 µM [inhibitor, partial curve, poor fit].

Q: With `CCOc1ccc(C(=O)NCCc2csc(-c3cccc(C)c3)n2)cc1` as the compound, how does the Potency read?
A: The Potency was inconclusive: 39.8 µM [inhibitor, single point].

Q: Which Potency does the source give for `CC(=O)c1ccc(Nc2cc(C)nc3nc(Cc4ccccc4)nn23)cc1` here?
A: The Potency was inconclusive: 56.2 µM [inhibitor, single point].

Q: For `COc1ccc(-n2c(=O)c3c4c(sc3n(Cc3ccccc3C)c2=O)CCCC4)c(OC)c1`, which Potency is on record?
A: Its Potency is inconclusive: 56.2 µM [inhibitor, partial curve, poor fit].

Q: Which Potency does the source give for `CC(C)C(=O)N1N=C(c2cc(Cl)ccc2Cl)CC1c1ccc2nccnc2c1` (stereo not given) here?
A: The Potency was inconclusive: 79.4 µM [inhibitor, partial curve].

Q: With `Cc1ccc(C)c(N2CCN(CCCNC(=O)c3ccc4nc(N5CCC(C)CC5)sc4c3)CC2)c1` as the compound, how does the Potency read?
A: The Potency was active: 31.6 µM.

Q: How did the Potency turn out when `Cc1ccc(S(=O)(=O)N2CCCC2C(=O)Nc2ccc(Br)cc2)cc1` (stereo not given) was run?
A: Its Potency is inconclusive: 8.91 µM [inhibitor, full curve, poor fit].

Q: For `CCOc1ccc(C(=O)c2cn(Cc3cccc(OC)c3)c3cc4c(cc3c2=O)OCO4)cc1`, which Potency is on record?
A: The Potency was inconclusive: 14.1 µM [inhibitor, full curve, poor fit].

Q: `CCOC(=O)c1c(C)oc2nc(C)nc(N(C)Cc3ccccc3)c12` was tested. Which Potency did it give?
A: The Potency was inconclusive: 35.5 µM [inhibitor, partial curve].

Q: `COc1ccccc1-c1noc(CSc2nnc(-c3ccccc3)n2-c2ccc(C)c(C)c2)n1` was tested. Which Potency did it give?
A: The Potency was inconclusive: 15.8 µM [inhibitor, full curve, poor fit].

Q: Which Potency does the source give for `CCOC(=O)CNC(=O)Nc1cc(C(=O)NCc2ccc(C(C)C)cc2)ccc1N1CCCC1` here?
A: Its Potency is inconclusive: 44.7 µM [inhibitor, partial curve, poor fit].
